Assay results published in PubChem BioAssay AID720709 (National Center for Advancing Translational Sciences (NCATS), 2013).
About 520 (0.14%) of roughly 360,000 compounds were called active. Inconclusive means that the source gave no clear call. Such entries were picked first, then a sample of the others. Calls come from the whole dose curve; as a rule, active = well fitted inhibition curve with a large enough effect; inconclusive = small, poorly fitted or top-dose-only effect; inactive = no such curve, though single readings can be large or run the other way. Potencies of inconclusive entries are left out as doubtful fits.

molecular target: Rap guanine nucleotide exchange factor 3 (Homo sapiens) (UniProt O95398); assay: qHTS for Antagonist of cAMP-regulated guanine nucleotide exchange factor 3 (EPAC1): primary screen; conditions: EPAC1 GEF assay, Rap1b-BODIPY-GDP exchange fluorescence; activity change, negative = inhibition: at 115 µM (top of the series); note: nearly all actives have a fitted effect of over 50% in size;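 for activity change, negative = inhibition: plate controls were vehicle for no effect and positive control for full effect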
Potency is the fitted concentration of half-maximal effect; tags give direction and shape of the fitted curve.

Sequence of UniProt O95398 (O95398 whole entry, looked up): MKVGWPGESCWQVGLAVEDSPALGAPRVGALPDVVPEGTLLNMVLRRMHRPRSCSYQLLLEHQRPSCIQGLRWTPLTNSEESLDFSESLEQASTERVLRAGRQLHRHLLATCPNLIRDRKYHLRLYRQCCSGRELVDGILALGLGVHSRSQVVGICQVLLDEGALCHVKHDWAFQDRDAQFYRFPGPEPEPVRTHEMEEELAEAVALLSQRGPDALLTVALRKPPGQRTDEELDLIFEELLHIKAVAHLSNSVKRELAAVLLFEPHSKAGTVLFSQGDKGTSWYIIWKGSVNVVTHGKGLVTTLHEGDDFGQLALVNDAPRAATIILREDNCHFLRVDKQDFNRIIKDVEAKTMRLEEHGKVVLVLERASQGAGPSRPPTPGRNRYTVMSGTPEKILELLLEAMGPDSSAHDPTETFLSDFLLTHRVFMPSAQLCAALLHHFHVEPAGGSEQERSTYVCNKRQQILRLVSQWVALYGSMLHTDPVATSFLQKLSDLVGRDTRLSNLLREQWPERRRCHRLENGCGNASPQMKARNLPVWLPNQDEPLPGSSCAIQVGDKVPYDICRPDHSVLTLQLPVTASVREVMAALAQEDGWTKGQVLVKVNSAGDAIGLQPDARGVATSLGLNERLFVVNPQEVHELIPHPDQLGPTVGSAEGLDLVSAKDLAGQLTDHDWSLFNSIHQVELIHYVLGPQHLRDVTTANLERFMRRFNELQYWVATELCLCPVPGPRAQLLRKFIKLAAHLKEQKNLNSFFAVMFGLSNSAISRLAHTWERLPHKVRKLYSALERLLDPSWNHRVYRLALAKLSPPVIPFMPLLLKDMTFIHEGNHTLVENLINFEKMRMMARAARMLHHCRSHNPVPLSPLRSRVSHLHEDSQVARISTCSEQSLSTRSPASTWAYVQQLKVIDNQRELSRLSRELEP

Row | Structure (SMILES) | Potency | activity change, negative = inhibition
1 | CCOc1ccc(NC(=S)NN(C)C(=S)Nc2ccc(OCC)cc2)cc1 | inconclusive [inhibitor, full curve, poor fit] | 
2 | N/C(=N\OC(=O)c1cccc([N+](=O)[O-])c1)c1cccnc1 | inconclusive [inhibitor, full curve, poor fit] | 
3 | CC(C)n1cc(/C=N/NC(=O)COc2cccc3cccnc23)c2ccccc21 | inconclusive [inhibitor, single point] | 
4 | Cc1c(C(=O)OCc2ccccc2)[nH]c2c1C(=O)CC(c1ccco1)C2 (stereo unspecified) | inconclusive [inhibitor, partial curve, poor fit] | 
5 | CCOC(=O)c1c(NC(=O)Cn2c(=O)oc3ccccc32)oc(C)c1C(C)=O | inconclusive [inhibitor, single point] | 
6 | COc1cc(O)c2c(=O)cc(-c3ccccc3)oc2c1 | inconclusive [inhibitor, single point] | 
7 | CC(C)=CCC[C@H](C)C[C@@H]1Cc2[nH][nH]c(=O)c2[C@@H](c2ccc(F)cc2)O1 | inconclusive [inhibitor, partial curve, poor fit] | 
8 | Clc1ccccc1-c1ncc2ccccn12 | inactive | 
9 | CC(C)(C)NC(=O)CSc1nc(O)cc(=O)n1-c1ccccc1 | inconclusive [inhibitor, partial curve] | 
10 | O=C1CCC(=O)N1c1ccc(NCCc2cccc(F)c2)c([N+](=O)[O-])c1 | inconclusive [inhibitor, single point] | 
11 | Cc1cc(-c2csc(NC(=O)c3ccc(C#N)cc3)n2)c(C)n1Cc1ccco1 | inconclusive [inhibitor, partial curve] | 
12 | O=C(CC(SCc1ccco1)c1ccc(O)cc1)c1cccs1 (stereo unspecified) | inconclusive [inhibitor, full curve, poor fit] | 
13 | CCOc1ccccc1-c1c2cc(O)c(=O)cc-2oc2cc(O)c(O)cc12 | inconclusive [inhibitor, partial curve, poor fit] | 
14 | CCOc1ccc(Br)cc1C1=NN(C(C)=O)C(c2ccc([N+](=O)[O-])s2)O1 (stereo unspecified) | inactive | 
15 | CC(C)Cc1csc(NC(=O)c2ccc(F)cc2)c1C(=O)O | active: 35.5 µM | 
16 | Cc1cccc(Nc2nc(C)cc(C)n2)c1 | inconclusive [inhibitor, full curve, poor fit] | 
17 | O=c1cc(O)c2sc3nc(-c4cccnc4)cc(C(F)(F)F)c3c2[nH]1 | inconclusive [inhibitor, single point] | 
18 | CCC(C)(C)c1ccc(Oc2ccc(N)cc2)cc1 | inconclusive [inhibitor, partial curve] | 
19 | Cc1ccc(-n2[nH]c(C)c(C=Nc3ccc4[nH]c(=O)[nH]c4c3)c2=O)cc1C | inconclusive [inhibitor, partial curve] | 
20 | COc1cc(C)c(NC(=S)Nc2cccc(Cl)c2)cc1OC | inconclusive [inhibitor, single point] | 
21 | O=C(c1cccc(-n2cccc2)c1)N1CCN(S(=O)(=O)c2ccccc2)CC1 | active: 79.4 µM | 
22 | O=C(COC(=O)COc1ccccc1)NC1CCCC1 | inconclusive [inhibitor, full curve] | 

Row | Structure (SMILES) | Potency | activity change, negative = inhibition
23 | Cc1nn(-c2ccccc2)c(Cl)c1C(=O)OC(C)C(=O)Nc1ccc2c(c1)OCO2 (stereo unspecified) | inconclusive [inhibitor, partial curve, poor fit] | 
24 | O=C1c2c(O)cc(O)cc2O[C@@]12c1c(cc(O)c3c1O[C@H](c1ccc(O)cc1)[C@@H](O)C3)O[C@@H]2c1ccc(O)cc1 | inconclusive [inhibitor, partial curve] | 
25 | COC(=O)C1=C(C)N(c2cc(C)cc(C)c2)/C(=C/c2ccco2)C1=O | inconclusive [inhibitor, partial curve, poor fit] | 
26 | Brc1ccc2nc(-c3ccco3)c(CC3CCCCC3)n2c1 | inconclusive [inhibitor, full curve, poor fit] | 
27 | CNC(=O)c1ccc2snnc2c1 | inconclusive [inhibitor, single point] | 
28 | COc1ccccc1OCc1nnc(SCC(=O)NCc2ccco2)n1-c1ccccc1 | inconclusive [inhibitor, single point] | 
29 | NC(=O)c1cc(S(=O)(=O)N2CCc3ccccc3C2)cs1 | inactive | 
30 | COc1cccc(/C=C(\C#N)C(=O)NC2CCS(=O)(=O)C2)c1 (stereo unspecified) | inactive | 
31 | Cc1cc(C)n2c(SCC(O)=C(C#N)c3nc4ccccc4[nH]3)nnc2n1 | inconclusive [inhibitor, single point] | 
32 | COc1cccc(NC(=O)CSc2nc3ccccc3nc2N2CCOCC2)c1 |  | inconclusive: -7.54% [inhibitor]
33 | FC(F)Oc1ccc(NC(=S)NCc2nc3ccccc3[nH]2)cc1 | inconclusive [inhibitor, partial curve, poor fit] | 
34 | COC(=O)c1cc(Cl)ccc1NCC(N)c1ccccc1 (stereo unspecified) | inactive | 
35 | Cc1ccc2nc(NC(=O)CSCC(=O)OCC(=O)c3ccc(Br)cc3)sc2c1 | inconclusive [inhibitor, full curve, poor fit] | 
36 | Nc1nonc1-n1nnc(C(=O)N/N=C/c2ccccc2Cl)c1CSc1ccccc1 | inconclusive [inhibitor, full curve, poor fit] | 
37 | COc1cccc(NC(=O)c2ccc(NC(=O)C3CC(=O)OC34CCCCC4)cc2)c1 (stereo unspecified) | inconclusive [inhibitor, partial curve] | 
38 | Cc1nc2cc(-c3ccsc3-n3c(C)ccc3C)[nH]n2c(=O)c1Cl | inconclusive [inhibitor, partial curve] | 
39 | CCOc1ccc(Br)cc1S(=O)(=O)Nc1ccccc1N1CCOCC1 | inactive | 
40 | O=C(NNc1cc(Br)c(O)c(Br)c1)c1ccccc1 | inconclusive [inhibitor, partial curve] | 
41 | CCCCn1c(SCC(=O)Nc2cc(C(F)(F)F)cc(C(F)(F)F)c2)nnc1C(CC)N(C)C (stereo unspecified) | inconclusive [inhibitor, partial curve] | 
42 | CCOc1ccccc1CN1CCC(CO)(CCOc2ccccc2)CC1 | inactive | 
43 | Oc1ccc2ccccc2c1-c1sc(Nc2ccccc2)n[n+]1-c1ccc(F)cc1 | inconclusive [inhibitor, partial curve, poor fit] | 
44 | Cc1cccc(OCCn2ccnc2)c1C |  | inconclusive: -8.51% [inhibitor]

Row | Structure (SMILES) | Potency | activity change, negative = inhibition
45 | CCOC(=O)c1ccc2c(c1)N(C)C(=O)c1ccccc1S2 | inactive | 
46 | Cc1ccc(OCCOCCOc2ccc(Br)cc2/C=N\NC(=O)c2ccncc2)cc1 | inconclusive [inhibitor, partial curve] | 
47 | O=C(N[C@@H](Cc1c[nH]c2ccccc12)C(=O)O)OCC1c2ccccc2-c2ccccc21 | inconclusive [inhibitor, single point] | 
48 | CC(C)n1c(SCC(=O)Nc2ccccc2)nc2c1c(=O)n(C)c(=O)n2C | inactive | 
49 | Cc1cccc(NC(=S)NC(=O)c2ccco2)c1C | inactive | 
50 | COc1ccc2c(OC)c3ccoc3nc2c1OC | inconclusive [inhibitor, full curve, poor fit] | 
51 | O=c1[nH]nc(SCc2ccccc2)c(=O)[nH]1 | inactive | 
52 | Cc1ccc(C(=O)N2CCC(N3CCC(C(=O)N4CCOCC4)CC3)CC2)cc1C | inactive | 
53 | CC12C=CC3(O1)C(C(=O)N1CCCOC13)C2C(=O)O (stereo unspecified) | inconclusive [inhibitor, full curve] | 
54 | O=C(c1ccccn1)N1CCN(S(=O)(=O)c2ccccc2)CC1 | inconclusive [inhibitor, partial curve] | 
55 | COc1ccc(N2CCN(C(=O)c3ccc(CS(=O)Cc4ccc(Cl)cc4)o3)CC2)cc1 (stereo unspecified) | inconclusive [inhibitor, full curve, poor fit] | 
56 | Nc1ccc(C(=O)N/N=C/c2cn(Cc3ccccc3F)c3ccccc23)cc1 | inconclusive [inhibitor, single point] | 
57 | NNC(=O)C(=O)/C=C1\NC2(CCCC2)Cc2ccccc21 | inconclusive [inhibitor, full curve, poor fit] | 
58 | O=c1cc(-c2ccc(O)c(-c3c(O)cc(O)c4c(=O)cc(-c5ccc(O)cc5)oc34)c2)oc2cc(O)cc(O)c12 | inconclusive [inhibitor, partial curve, poor fit] | 
59 | CCOP(=O)(c1ccccc1)c1nc(-c2ccccc2C)oc1N1CCCCC1 (stereo unspecified) | inconclusive [inhibitor, full curve, poor fit] | 
60 | CCOc1ccc2nc(N/C(N)=N/C(=S)Nc3ccc(OC)cc3)nc(C)c2c1 | inconclusive [inhibitor, single point] | 
61 | Cc1ccc(N2C(=O)c3ccccc3C2C(=O)c2ccc(O)cc2O)cc1 (stereo unspecified) | inconclusive [inhibitor, partial curve] | 
62 | CC1(C)CC(=O)c2cc(C(=O)NC3CCSC3=O)c(=O)n(-c3ccc(Cl)cc3)c2C1 (stereo unspecified) | inconclusive [inhibitor, single point] | 
63 | Cc1ccc(C)c(NC(=S)NNc2ccc(F)cc2F)c1 | inactive | 
64 | O=C(CC(c1ccccc1)c1ccccc1)Nc1ccc(Cl)cn1 | inactive | 
65 | CCOC(=O)CC(=O)CSc1ncnc2c1cnn2-c1ccccc1 | inactive | 
66 | O=[N+]([O-])c1cc(Cl)ccc1-c1nc(-c2ccccc2)no1 | inactive | 
